Results from publication PMC6286156 (Cell Calcium, 2018).
Where a name gives a salt, the structure may show the parent alone.

Legend:
[1] = system: NAADP-evoked Ca^2+ release; type: biochemical, Strongylocentrotus purpuratus
[2] = system: specific ^32P-NAADP binding in sea urchin egg homogenates; experiment: 32P-NAADP radioligand binding in sea urchin egg homogenate; set-up: species or system Strongylocentrotus purpuratus; details: drug 30 μM, specific 32P-NAADP binding relative to vehicle
[3] = system: NAADP-evoked Ca^2+ release; experiment: Primary screen of NAADP-evoked Ca2+ release in sea urchin egg homogenate; type: biochemical, Strongylocentrotus purpuratus; details: compound 25 μM, 6 min preincubation, NAADP 167 nM

SMILES | 2° Screen (sea urchin) Ca^2+ release log(IC50) [1] | 2° Screen (sea urchin) NAADP binding (% inhibition) [2] [%] | 1° Screen (sea urchin) Ca^2+ release (% NAADP): peak NAADP-evoked Ca2+ release as % of control NAADP response [3] [%]
CN1CCC[C@@H]1CCO[C@](C)(c1ccccc1)c1ccc(Cl)cc1 [Clemastine fumarate, clemastine fumarate] | −4.78 ± 0.09 | 8.2 ± 3.6 | 13.7 ± 15
OCCN1CCN(CCCN2c3ccccc3Sc3ccc(C(F)(F)F)cc32)CC1 [Fluphenazine dihydrochloride, fluphenazine dihydrochloride] | −4.97 ± 0.03 | 3.2 ± 1.5 | 
CCN(CC)CC#CCOC(=O)C(O)(c1ccccc1)C1CCCCC1 (centres unmarked) [Oxybutynin Chloride, oxybutynin chloride] | −5.07 ± 0.05 | −6.0 ± 5.2 | 19.0 ± 10
CN1CCN(CCCN2c3ccccc3Sc3ccc(Cl)cc32)CC1 [Prochlorperazine dimaleate, prochlorperazine dimaleate salt] | −4.62 ± 0.27 | 0.0 ± 3.4 | 15.0 ± 12
CSc1ccc2c(c1)N(CCC1CCCCN1C)c1ccccc1S2 (centres unmarked) [Thioridazine hydrochloride, thioridazine hydrochloride] | −4.77 ± 0.02 | −3.3 ± 1.5 | 15.3 ± 17
